The supplement of paper PMC11417369
± gives the standard deviation of the averaged measurements. This is one part of the list.

system: PfAP2-EXP AP2 domain (GST-tagged); assay: gcPBM binding intensity (ln(normalized median fluorescence intensity)); higher = stronger DNA binding
In short: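 An Agilent 4 × 180k array of primer-extended double-stranded 36-bp intergenic genomic probes, with negative controls, was incubated for 1 h with GST-tagged P. falciparum DNA-binding domains expressed in E. coli. Alexa488 anti-GST antibody detected bound protein, scanned at 488 nm. Binding intensity is the highest Masliner-normalised natural-log median intensity across replicate spots of either probe orientation.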

Q: With TTTGAAAAGTATGAGGTGCAAAAAATGTAATGAAAT as the sequence, how does the “gcPBM binding intensity (ln)” value read?
A: 9.31 ± 0.25

Q: How did the “gcPBM binding intensity (ln)” value turn out when “TTTTTCTGTCGTTGTTGTACTTGAGGAGTAACAATT [XGTACX_site7852]” was run?
A: 8.92 ± 0.48

Q: How did the “gcPBM binding intensity (ln)” value turn out when “CATTTTAAAACAGACACACACCAAAAAAAAAAAAAA [CACACA_site6259]” was run?
A: 8.28 ± 0.56

Q: With “TATATTATTATGCATAGTACGTACTGTGATAAGAAT [XGTACX_site2956]” as the sequence, how does the “gcPBM binding intensity (ln)” value read?
A: 8.73 ± 0.35

Q: ATATAAGAATAAATAGTGCAAAATAAATGATTATTT was tested. Which “gcPBM binding intensity (ln)” value did it give?
A: 8.79 ± 0.18

Q: For “AATACGAAGGATAAGAGTACTAATTAAATAAATGAA [XGTACX_site523]”, which “gcPBM binding intensity (ln)” value is on record?
A: 8.96 ± 0.28

Q: With “GTATATAAGTATATATGTACATATATTTTATATATA [XGTACX_site4745]” as the sequence, how does the “gcPBM binding intensity (ln)” value read?
A: 8.42 ± 0.23

Q: “TTTTATAATTTAAAATAATGAAACTTCTTTCTATTT [TGCATGCA_negctrl_site324]” was tested. Which “gcPBM binding intensity (ln)” value did it give?
A: 8.08 ± 0.33

Q: How did the “gcPBM binding intensity (ln)” value turn out when TTTTTTTTTTTTTTGGTGCGATCTTTTAAATGATCC was run?
A: 8.37 ± 0.49

Q: Which “gcPBM binding intensity (ln)” value does the source give for “TTTAAATTTTAATATGCACACAAAATGTTATATTAA [CACACA_site8015]” here?
A: 8.3 ± 0.46

Q: With “TTTCTGATATTTTTATATTTTCTTATATATATATAT [GTGCAC_negctrl_site652]” as the sequence, how does the “gcPBM binding intensity (ln)” value read?
A: 9.94 ± 0.19

Q: Which “gcPBM binding intensity (ln)” value does the source give for “AAAAATATAATATAATGTACACAAAAAAAAAAAAAT [XGTACX_site4914]” here?
A: 8.65 ± 0.37

Q: “ATTTGTAATTTATATTCACACATTCAAAAAAATGAG [CACACA_site6057]” was tested. Which “gcPBM binding intensity (ln)” value did it give?
A: 8.24 ± 0.4

Q: Which “gcPBM binding intensity (ln)” value does the source give for “TATAAATTTGTTGTTGCATGCAGTATACCAAAAAAA [TGCATGCA_site445]” here?
A: 10.1 ± 0.52

Q: How did the “gcPBM binding intensity (ln)” value turn out when “TAAAATGTAATCTGAACACACATATTTTTTTAATAT [CACACA_site1768]” was run?
A: 8.12 ± 0.52

Q: With “AATAGCCCATATGGAATACACACTGAAAATAAAAAA [CACACA_site3373]” as the sequence, how does the “gcPBM binding intensity (ln)” value read?
A: 8.82 ± 0.52

Q: “CCATAAAAAGGATACACACACACACCGACATATATA [CACACA_site4653]” was tested. Which “gcPBM binding intensity (ln)” value did it give?
A: 8.65 ± 0.55

Q: With “GTATTATATTTCAACTGTACGTAAAACTATTAAAAT [XGTACX_site3679]” as the sequence, how does the “gcPBM binding intensity (ln)” value read?
A: 8.75 ± 0.27

Q: Which “gcPBM binding intensity (ln)” value does the source give for “ATAAAGCCATACAATACACACATTTTACATGGGGGT [CACACA_site9072]” here?
A: 9.7 ± 0.38

Q: How did the “gcPBM binding intensity (ln)” value turn out when “CAAAAAAATGTGAAGGCATGCAAATATGTAAAATAA [TGCATGCA_site921]” was run?
A: 9.64 ± 0.42

Q: With “TTCATTTAGCAAGAATGTACTTATATATATATATAT [XGTACX_site3401]” as the sequence, how does the “gcPBM binding intensity (ln)” value read?
A: 9.93 ± 0.32

Q: With “CTTTCTTATTTGAACGCATGCATTTGTACCTTTTAT [TGCATGCA_site671]” as the sequence, how does the “gcPBM binding intensity (ln)” value read?
A: 9.78 ± 0.26

Q: For “CATGCAAAAAATTCCACACACACACCCACATATAAA [CACACA_site1229]”, which “gcPBM binding intensity (ln)” value is on record?
A: 8.57 ± 0.47

Q: With “TATATACAAAATGCCTGTACATATATATTTATTTAT [XGTACX_site761]” as the sequence, how does the “gcPBM binding intensity (ln)” value read?
A: 8.38 ± 0.36

Q: With “AATTATTTATCGGAATGTACATAAAAACATATGTAT [XGTACX_site7443]” as the sequence, how does the “gcPBM binding intensity (ln)” value read?
A: 8.95 ± 0.44

Q: Which “gcPBM binding intensity (ln)” value does the source give for “AATAATATCATTTAGACACACACTCTTACAATATGT [CACACA_site8832]” here?
A: 8.61 ± 0.45

Q: “ACCTACATAACATACACACGCATATATATAATTTTA [CACACA_site2847]” was tested. Which “gcPBM binding intensity (ln)” value did it give?
A: 8.99 ± 0.46

Q: How did the “gcPBM binding intensity (ln)” value turn out when “TATTTAATAAAGAAATAAAAATAAAGAAAAAAAAAA [CACACA_negctrl_site74]” was run?
A: 8.34 ± 0.36

Q: With “GGCAACAATGTAGATTGTACATATGAATTTTACAAT [XGTACX_site5655]” as the sequence, how does the “gcPBM binding intensity (ln)” value read?
A: 8.44 ± 0.31

Q: How did the “gcPBM binding intensity (ln)” value turn out when ATATATATTATCATTGTGCACTTATTTATATACCTT was run?
A: 9.38 ± 0.13

Q: With “ATATTTTGTTTTATAGTGCACATGGGCATATATTAA [GTGCAC_site9435]” as the sequence, how does the “gcPBM binding intensity (ln)” value read?
A: 8.88 ± 0.26

Q: Which “gcPBM binding intensity (ln)” value does the source give for “TTTACTTTTTTTTCTTGTACTCATACATACTATCAT [XGTACX_site4919]” here?
A: 8.9 ± 0.32

Q: With “AAATTTCAATAATCTACACACATAAAAAAACAAAAG [CACACA_site1702]” as the sequence, how does the “gcPBM binding intensity (ln)” value read?
A: 8.82 ± 0.52

Q: For “TTTAATAAATAAATAAATAAAATATATTAAAAACCA [CACACA_negctrl_site80]”, which “gcPBM binding intensity (ln)” value is on record?
A: 8.38 ± 0.36

Q: With “ATATTTTATTATTGTTGTACTTTTTTTTTTTGATTG [XGTACX_site4091]” as the sequence, how does the “gcPBM binding intensity (ln)” value read?
A: 8.73 ± 0.5

Q: For “ATAATATGAAAACACACACACACACTAATAAAAAAA [CACACA_site8617]”, which “gcPBM binding intensity (ln)” value is on record?
A: 8.51 ± 0.35

Q: How did the “gcPBM binding intensity (ln)” value turn out when “ATATAAAAATTAAAATGTACATATCTTATTATAATA [XGTACX_site983]” was run?
A: 8.32 ± 0.34

Q: How did the “gcPBM binding intensity (ln)” value turn out when “GTTTAAAAAAATTATCAACTTTAAAAAGGTAACATT [XGTACX_negctrl_site203]” was run?
A: 8.26 ± 0.42

Q: For “TAATAAAATAATATCACACATATTTATATATATTAT [CACACA_site5814]”, which “gcPBM binding intensity (ln)” value is on record?
A: 8 ± 0.33

Q: For “CAACATAAAAATTAAGCATGCAATAGACTTGTGTTG [TGCATGCA_site417]”, which “gcPBM binding intensity (ln)” value is on record?
A: 9.66 ± 0.37

Q: For “GTAGTAAATAGGAGGATGCATATGGCACACATTATA [TGCATGCA_negctrl_site59]”, which “gcPBM binding intensity (ln)” value is on record?
A: 9.02 ± 0.26

Q: With “TTATCACATAAACGATGTACGTACTAGGTTTTTTTT [XGTACX_site2147]” as the sequence, how does the “gcPBM binding intensity (ln)” value read?
A: 8.49 ± 0.4

Q: How did the “gcPBM binding intensity (ln)” value turn out when “TTTTTTTTTTTTTTTTTTTTCATTCAATTATATTTA [CACACA_negctrl_site712]” was run?
A: 8.04 ± 0.33

Q: With “ATAAAAAGGAAACACACACACACACCCATATATATA [CACACA_site904]” as the sequence, how does the “gcPBM binding intensity (ln)” value read?
A: 8.73 ± 0.44

Q: With “TGAATAATATACATACGTACATACATATATATAATA [XGTACX_site1302]” as the sequence, how does the “gcPBM binding intensity (ln)” value read?
A: 8.32 ± 0.3

Q: For “AAAGGAATATAATGATGTACACAAATATATATACAT [XGTACX_site5347]”, which “gcPBM binding intensity (ln)” value is on record?
A: 8.66 ± 0.33

Q: “AACTAATATAATAATACATGCACATAAAAATATATA [TGCATGCA_site606]” was tested. Which “gcPBM binding intensity (ln)” value did it give?
A: 9.01 ± 0.14

Q: “TATTTTTTTATTTGTGCATGTCATATTTAAACATAA [TGCATGCA_site1006]” was tested. Which “gcPBM binding intensity (ln)” value did it give?
A: 8.93 ± 0.38

Q: How did the “gcPBM binding intensity (ln)” value turn out when “CACGCATACGGACACACACACACACCGATATATATA [CACACA_site4521]” was run?
A: 8.72 ± 0.39

Q: For “TATATGTTTAATTTCACACACAAATATACATTTTAA [CACACA_site4171]”, which “gcPBM binding intensity (ln)” value is on record?
A: 8.34 ± 0.38

Q: For AGTAGATTTTTATTAGTGCATTTTATACTACAAAAA, which “gcPBM binding intensity (ln)” value is on record?
A: 8.55 ± 0.21

Q: With “AAGAAAATGTAGAATTAGAAATAAATGAAGAAATGA [TGCATGCA_negctrl_site548]” as the sequence, how does the “gcPBM binding intensity (ln)” value read?
A: 8.9 ± 0.42

Q: For “CATTAGCATTTTATTACACACAATAAATTAGAAGTA [CACACA_site7837]”, which “gcPBM binding intensity (ln)” value is on record?
A: 8.4 ± 0.35

Q: Which “gcPBM binding intensity (ln)” value does the source give for “TTTTAAAACAATGAGATTCCTTTCTTTTTTTCTTTT [CACACA_negctrl_site1320]” here?
A: 7.96 ± 0.59

Q: Which “gcPBM binding intensity (ln)” value does the source give for “ATATTTATTTATATCATACACACTAATATGTATATT [CACACA_site7576]” here?
A: 8.54 ± 0.3

Q: With “CTTAATGATAAATACATACACACAAAAAATAATATA [CACACA_site2577]” as the sequence, how does the “gcPBM binding intensity (ln)” value read?
A: 8.64 ± 0.4

Q: For “TATCCCTTAGAATACACACCCATATGAGGGTGAACT [CACACA_site5610]”, which “gcPBM binding intensity (ln)” value is on record?
A: 8.22 ± 0.42
